According to article PMC4336329 (PLoS ONE, 2015):
Out of some 310,000 compounds screened, about 2,200 (0.71%) showed an effect of 50% or more. Effects have a minus sign here. Some of the results follow.

The compounds below were run against human ether-à-go-go-related gene (hERG) potassium channel (human, UniProt Q12809) (assay: primary screen, population patch clamp on CHO cells stably expressing hERG).
Chain of human ether-à-go-go-related gene (hERG) potassium channel (Q12809 whole entry, looked up): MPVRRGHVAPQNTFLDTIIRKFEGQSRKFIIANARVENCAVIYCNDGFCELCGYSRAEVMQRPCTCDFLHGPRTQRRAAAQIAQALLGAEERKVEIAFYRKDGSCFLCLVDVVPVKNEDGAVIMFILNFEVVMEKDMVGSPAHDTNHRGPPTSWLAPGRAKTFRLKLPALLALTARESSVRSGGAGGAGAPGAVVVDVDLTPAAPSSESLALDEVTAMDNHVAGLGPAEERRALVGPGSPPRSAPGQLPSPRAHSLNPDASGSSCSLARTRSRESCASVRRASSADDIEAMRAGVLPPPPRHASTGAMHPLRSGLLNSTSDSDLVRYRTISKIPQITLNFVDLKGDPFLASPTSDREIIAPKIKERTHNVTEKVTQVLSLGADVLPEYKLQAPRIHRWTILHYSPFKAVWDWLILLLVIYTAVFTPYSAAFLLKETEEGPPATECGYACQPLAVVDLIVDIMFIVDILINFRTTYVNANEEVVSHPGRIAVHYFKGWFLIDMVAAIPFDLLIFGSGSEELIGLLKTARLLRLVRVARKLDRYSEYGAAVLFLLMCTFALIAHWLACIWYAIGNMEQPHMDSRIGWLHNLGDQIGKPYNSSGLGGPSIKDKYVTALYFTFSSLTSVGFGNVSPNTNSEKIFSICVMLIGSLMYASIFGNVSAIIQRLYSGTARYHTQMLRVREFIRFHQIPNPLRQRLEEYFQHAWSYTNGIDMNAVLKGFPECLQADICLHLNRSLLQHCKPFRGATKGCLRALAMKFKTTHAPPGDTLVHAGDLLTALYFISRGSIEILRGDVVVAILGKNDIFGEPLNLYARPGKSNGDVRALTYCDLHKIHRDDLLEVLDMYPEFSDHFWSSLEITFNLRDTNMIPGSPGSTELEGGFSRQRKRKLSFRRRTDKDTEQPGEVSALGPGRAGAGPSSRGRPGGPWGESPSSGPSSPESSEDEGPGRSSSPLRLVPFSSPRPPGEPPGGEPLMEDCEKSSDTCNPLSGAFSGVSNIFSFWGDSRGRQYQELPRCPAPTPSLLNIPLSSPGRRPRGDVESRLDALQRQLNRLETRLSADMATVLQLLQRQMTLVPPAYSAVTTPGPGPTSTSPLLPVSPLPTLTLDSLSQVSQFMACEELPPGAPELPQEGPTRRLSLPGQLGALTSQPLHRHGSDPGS

| SMILES | hERG current change (%, negative = inhibition) at 1uM [%] |
| --- | --- |
| O=C(NNC(=O)c1ccccc1[N+](=O)[O-])c1ccccn1 | 3.32 |
| CN(C)/C=N/c1ncc(C(=O)c2ccc3ccccc3c2)s1 | -2.51 |
| Cc1cc(/C=C(/C#N)c2nc3ccccc3[nH]2)c(C)n1-c1cccc([N+](=O)[O-])c1 | 16 |
| Cc1ccc2c(c1)C1CN(C)CCC1N2C(=O)Cn1nnc(-c2ccccc2F)n1 (centres unmarked) | -9.36 |
| N#CC1(NC(=O)COC(=O)Cc2n[nH]c(=O)c3ccccc23)CCCCC1 | 8.96 |
| CCCc1cc(=O)[nH]c(SCC(=O)c2cc(C)n(CCC)c2C)n1 | 12.2 |
| CCCNc1nc2ccccc2c(=O)[nH]1 | 13.9 |
| NC(=O)NC(Cc1ccccc1)C(=O)NCC1(N2CCCCC2)CCCCC1 (centres unmarked) | 10.6 |
| C/C(=N/NC(=O)CNC(=O)c1cccs1)c1ccco1 | 11 |
| COc1ccc(CNC(=O)C2=CC(c3ccc(OC)cc3)=NS(=O)(=O)N2C)cc1 | -18.9 |
| O=CN1CCN(C(=O)CN2C(=O)c3ccccc3C2=O)CC1 | 4.48 |
| NC(=O)NC(=O)COC(=O)/C=C/c1cccc(Br)c1 | -3.47 |
| CCCCCCCCCCCCCCCC(=O)OC(CC(=O)O)C[N+](C)(C)C.[Cl-] (centres unmarked) | -8.25 |
| O=C(CCOc1ccccc1)Nc1ccccc1 | 11.3 |
| Cc1ccc2[nH]c(=O)c3cc(C(=O)NC(C)C)sc3c2c1 | 14.6 |
| COC(=O)NNC(=O)c1cccc(C)c1 | -0.0022 |
| COc1ccc(-n2cnc3scc(-c4ccccc4)c3c2=O)cc1 | 12 |
| CC(C)OP(=O)(Nc1cccc2ccccc12)OC(C)C | 5.85 |
| O=C(CCCn1c(=S)[nH]c2ccc(Br)cc2c1=O)N1CCN(c2ccccn2)CC1 | -6.43 |
| CC1CN(C(=O)COC(=O)c2cc(Cl)ccc2Cl)CC(C)O1 (centres unmarked) | 8.04 |

| SMILES | hERG current change (%, negative = inhibition) at 1uM [%] |
| --- | --- |
| CN(CC(=O)Nc1c(Cl)cccc1Cl)C(=O)Cc1ccc2c(c1)CCC2 | 19.2 |
| CC(=O)C1C(c2ccc(F)cc2)c2c(noc2C)CC1(C)O (centres unmarked) | 14.4 |
| COc1ccc(S(=O)(=O)N2CCCOC2CNC(=O)C(=O)NCCCN2CCOCC2)cc1 (centres unmarked) | 13.3 |
| Cc1ccc(-c2csc(NC(=O)c3cccc([N+](=O)[O-])c3)n2)cc1 | 10.3 |
| COC(=O)CSC(C(=O)Nc1ccc(C)c(C)c1)c1ccccc1 (centres unmarked) | -4.33 |
| CC(C)(C)c1nc2scc(-c3cccs3)c2c(=O)o1 | 10.5 |
| Cc1ccc(S(=O)(=O)NCCc2ccc(S(N)(=O)=O)cc2)cc1 | 2.39 |
| CC1CCN(Cc2cnc(Cl)s2)CC1 | 9.49 |
| CC(=O)Nc1ccc(NC(=O)/C=C/c2cccc(C(F)(F)F)c2)cc1 | 4.29 |
| CSc1ccccc1OCc1cc(C(=O)N(C)Cc2cc(C)[nH]n2)no1 | 2.21 |
| CC(C)NC(=O)NC(=O)COC(=O)c1cc(S(=O)(=O)N2CCCCC2)ccc1N1CCOCC1 | 17 |
| C/C(=N\Nc1cccc(Cl)c1)C1(C)N(O)C(C)(C)C(c2ccco2)=[N+]1[O-] (centres unmarked) | 13.6 |
| CC(=O)NCc1ccc(-c2csc(N)n2)s1 | 9.92 |
| CC1CC(C)CN(CCCNC(=O)CN2C(=O)CSc3ccc(S(=O)(=O)N4CCCCC4)cc32)C1 (centres unmarked) | 5.37 |
| O=C(Nc1nc(-c2ccc(F)c(F)c2)cs1)C1=COCCO1 | 6.96 |
| Cc1ccc(C(=O)OCC(=O)NCC2CCCO2)c(C)c1 (centres unmarked) | 10.9 |
| Cc1ccc(NS(=O)(=O)c2cc3c(cc2C)NC(=O)CO3)cc1 | -2.75 |
| CC(=O)Nc1ccc(S(=O)(=O)N2CCN(c3ccc([N+](=O)[O-])cc3)CC2)cc1 | -6.25 |
| Cc1ccc(NC(=O)CN2C(=O)N/C(=C/c3ccco3)C2=O)cc1 | 4.2 |
| COc1cc(NC(=O)c2ccc3c(SCC(=O)O)c4c(nc3c2)CCCC4)cc(OC)c1OC | 14.4 |

| SMILES | hERG current change (%, negative = inhibition) at 1uM [%] |
| --- | --- |
| COCCn1c(C)cc(C(=O)COc2nc3ccccc3nc2C)c1C | 5.23 |
| CCCOc1ccc(-c2c(C(=O)N/N=C/c3ccncc3)nnn2-c2nonc2N)cc1 | 18.1 |
| COc1ccc(NC(=O)CSc2nc(C(C)C)nc3c2c(=O)n(C)c(=O)n3C)c(OC)c1 | 15.1 |
| Oc1c(C(c2ccccc2Cl)N2CCCC2)ccc2cccnc12 (centres unmarked) | 11.9 |
| CS(=O)(=O)N1CCC(C(=O)Nc2ccc(Cl)cc2)CC1 | 10.9 |
| O=C1COc2ccc(S(=O)(=O)Nc3cccc(Cl)c3)cc2N1 | 4.44 |
| Cc1ccc(C(C)C)c(OCC(=O)N/N=C/c2ccc(S(=O)(=O)[O-])o2)c1 | 14.3 |
| Cc1cc(Cl)c(Cl)cc1S(=O)(=O)NCCCn1ccnc1 | 10.5 |
| COC(=O)C1=C(C)N(Cc2ccc3c(c2)OCO3)C(=O)C1 | 4.26 |
| Nc1nnc(-c2ccc(Cl)cc2Cl)s1 | 11 |
| COCC(O)CNc1ccccc1 (centres unmarked) | 11 |
| CC(=O)O[C@]1(C(C)=O)CC[C@H]2[C@@H]3C=C(C)C4=CC(=O)CC[C@@H]4[C@H]3CC[C@@]21C | -12 |
| CC1CC(C)(C)NC(=S)N1CCC(=O)NCc1ccc(F)cc1 (centres unmarked) | 4.51 |
| CC(/C=C/c1ccco1)=N/NC(=O)CNc1ccccc1C | -7.22 |
| Cc1nonc1NCn1nnc2ccccc21 | 10.1 |
| Cc1c(Br)c([N+](=O)[O-])nn1C(C)C(=O)NCc1ccco1 (centres unmarked) | 12.2 |
| O=C(O)/C=C/C(=O)Nc1cccnc1 | 11.2 |
| CCOc1c(Cl)cc(/C=N/NC(N)=S)cc1OC | 10.3 |
| Nc1cc(-c2ccc(Br)cc2)nc2cc(-c3ccccc3)nn12 | 13.6 |
